According to the supplement of paper PMC8047034:
Structures can show the parent of a compound that is named as a salt. Some of the results follow. Repeats are few or missing, and single values can be far off.

What was measured:
[1] = system: OVCAR4; test: log2 surviving fraction (library drug vs vehicle, or drug + carboplatin vs carboplatin alone; relative to plate median); ovarian cancer lines: OVCAR4 is platinum-sensitive and Ov4Carbo platinum-resistant; higher = more cell survival; settings: library drug concentration 10 µM, 7 days
[2] = system: Ov4Carbo; test: as above; settings: library drug concentration 10 µM, 7 days

| Structure (SMILES) | log2 surviving fraction ([1]; carboplatin co-treatment 0 µM) | log2 surviving fraction ([1]; carboplatin co-treatment 5 µM) | log2 surviving fraction ([2]; carboplatin co-treatment 0 µM) | log2 surviving fraction ([2]; carboplatin co-treatment 5 µM) |
| --- | --- | --- | --- | --- |
| CCn1cc(C(=O)O)c(=O)c2cc(F)c(N3CCNCC3)nc21 [Enoxacin (Penetrex)] | 0.859 | 0.507 | -0.27 | -0.121 |
| NC[C@H]1CC[C@H](C(=O)O)CC1 [Tranexamic acid (Transamin)] | 0.383 | 0.618 | 0.477 | 0.352 |
| COc1ccc(-c2nc3cc(C4=NNC(=O)CC4C)ccc3[nH]2)cc1 (stereo not drawn) [Pimobendan (Vetmedin)] | -3.55 | -3.27 | -3.24 | -2.55 |
| C[C@H](Cc1cc2c(c(C(N)=O)c1)N(CCCO)CC2)NCCOc1ccccc1OCC(F)(F)F [Silodosin (Rapaflo)] | 0.0425 | -0.651 | 0.441 | -0.726 |
| NCCCC[C@H](N[C@@H](CCc1ccccc1)C(=O)O)C(=O)N1CCC[C@H]1C(=O)O [Lisinopril (Zestril)] | 0.262 | 0.215 | 1.68 | 0.777 |
| N=C(N)NC(=N)N1CCOCC1 [Moroxydine] | -0.059 | 0.853 | 0.601 | 0.317 |
| CC[C@H](C)[C@H](N)C1=N[C@H](C(=O)N[C@@H](CC(C)C)C(=O)N[C@H](CCC(=O)O)C(=O)N[C@H](C(=O)N[C@H]2CCCCNC(=O)[C@H](CC(N)=O)NC(=O)[C@@H](CC(=O)O)NC(=O)[C@H](Cc3cnc[nH]3)NC(=O)[C@@H](Cc3ccccc3)NC(=O)[C@H]([C@@H](C)CC)NC(=O)[C@@H](CCCN)NC2=O)[C@@H](C)CC)CS1 [Bacitracin] | 1.4 | 1.01 | 0.945 | 0.726 |
| CC1CCc2c(N3CCC(O)CC3)c(F)cc3c(=O)c(C(=O)O)cn1c23 (stereo not drawn) [Nadifloxacin] | 1.31 | 1.21 | 0.586 | 0.462 |
| COC(=O)Nc1nc2cc([S+]([O-])c3ccccc3)ccc2[nH]1 (stereo not drawn) [Oxfendazole] | -0.536 | -4.78 | -1.69 | -0.205 |
| Cc1cccc(C)c1OCC(=O)N[C@@H](Cc1ccccc1)[C@@H](O)C[C@H](Cc1ccccc1)NC(=O)[C@H](C(C)C)N1CCCNC1=O [Lopinavir (ABT-378)] | -0.783 | -0.496 | -8.82 | -1.95 |
| CO[C@H]1/C=C/O[C@@]2(C)Oc3c(C)c(O)c4c(c3C2=O)C2=NC3(CCN(CC(C)C)CC3)NC2=C(NC(=O)/C(C)=C\C=C\[C@H](C)[C@H](O)[C@@H](C)[C@@H](O)[C@@H](C)[C@H](OC(C)=O)[C@@H]1C)C4=O [Rifabutin (Mycobutin)] | -4.24 | -0.482 | -0.962 | -1.14 |
| COc1cc(C(C)=O)ccc1OCCCN1CCC(c2noc3cc(F)ccc23)CC1 [Iloperidone (Fanapt)] | 0.371 | 0.184 | 0.133 | -0.0354 |
| C=C[C@H]1CN2CC[C@H]1C[C@H]2[C@H](O)c1ccnc2ccc(OC)cc12 [Quinine hydrochloride dihydrate] | -0.507 | -0.588 | -0.392 | -0.295 |
| COc1ccc2[nH]c([S+]([O-])Cc3ncc(C)c(OC)c3C)nc2c1 (stereo not drawn) [Omeprazole (Prilosec)] | 0.579 | 0.331 | 0.857 | -0.456 |
| CCC1=C(C)CN(C(=O)NCCc2ccc(S(=O)(=O)NC(=O)N[C@H]3CC[C@H](C)CC3)cc2)C1=O [Glimepiride] | 0.946 | 0.467 | 0.0912 | 0.412 |
| CNCC(=O)c1ccc(O)c(O)c1 [Adrenalone HCl] | -0.84 | -0.703 | -0.981 | -1.18 |
| CN(C/C=C/c1ccccc1)Cc1cccc2ccccc12 [Naftifine HCl] | 0.25 | 0.031 | -0.308 | -0.531 |
| CCOC(=O)[C@H](CCc1ccccc1)N[C@@H](C)C(=O)N1Cc2ccccc2C[C@H]1C(=O)O [Quinapril HCl (Accupril)] | 0.662 | 0.612 | 0.505 | 0.911 |
| CN1CCCCC1CCN1c2ccccc2Sc2ccc([S+](C)[O-])cc21 (stereo not drawn) [Mesoridazine Besylate] | -0.471 | -0.979 | -1.46 | -1.16 |
| O=P1(N(CCCl)CCCl)NCCCO1 (stereo not drawn) [Cyclophosphamide monohydrate] | 1.78 | 0.0944 | 1.54 | 0.748 |
| C[C@@H]1CCC[C@H](C)N1NC(=O)c1ccc(Cl)c(S(N)(=O)=O)c1 [Clopamide] | 0.138 | 0.585 | 0.931 | 0.027 |
| Cc1cccc(C)c1OCC(C)N (stereo not drawn) [Mexiletine HCl] | 0.813 | 0.34 | 0.844 | 0.642 |
| CC(C)(C(=O)O)c1ccc(C(O)CCCN2CCC(C(O)(c3ccccc3)c3ccccc3)CC2)cc1 (stereo not drawn) [Fexofenadine HCl] | -0.645 | 0.665 | -0.146 | -0.191 |
| COc1cc([C@@H]2c3cc4c(cc3[C@@H](O[C@@H]3O[C@@H]5CO[C@@H](c6cccs6)O[C@H]5[C@H](O)[C@H]3O)[C@H]3COC(=O)[C@H]23)OCO4)cc(OC)c1O [Teniposide (Vumon)] | -6.68 | -6.96 | -7.48 | -6.47 |
| CC1C=CC=CCCC=CC=CC=CC=CC(OC2OC(C)C(O)C(N)C2O)CC2OC(O)(CC(O)C(O)CCC(O)CC(O)CC(O)CC(=O)OC(C)C(C)C1O)CC(O)C2C(=O)O (stereo not drawn) [Nystatin (Mycostatin)] | 0.259 | -1.87 | 0.412 | -2.07 |
| NC(=O)c1ncn([C@@H]2O[C@H](CO)[C@@H](O)[C@H]2O)n1 [Ribavirin (Copegus)] | 0.449 | 0.715 | 0.292 | 0.74 |

| Structure (SMILES) | log2 surviving fraction ([1]; carboplatin co-treatment 0 µM) | log2 surviving fraction ([1]; carboplatin co-treatment 5 µM) | log2 surviving fraction ([2]; carboplatin co-treatment 0 µM) | log2 surviving fraction ([2]; carboplatin co-treatment 5 µM) |
| --- | --- | --- | --- | --- |
| c1ccc([C@H]2CN3CCSC3=N2)cc1 [Levamisole Hydrochloride (Ergamisol)] | -2.37 | -1 | 0.532 | -1.02 |
| Clc1ccccc1CN1CCc2sccc2C1 [Ticlopidine HCl] | 0.157 | 0.856 | 0.797 | -0.173 |
| Clc1ccc(C(Cn2ccnc2)OCc2ccc(Sc3ccccc3)cc2)c(Cl)c1 (stereo not drawn) [Fenticonazole nitrate] | -2.75 | -2.7 | -2.53 | -2.47 |
| CCOC(=O)c1c(C)n(C)c2ccc(O)cc12 [Mecarbinate] | 0.363 | 1.59 | 1.21 | 1.35 |
| C=CCc1cc(OC)c(O)c(C(=O)NCCO)c1 [Alibendol] | -0.263 | 1.01 | -1.37 | 0.825 |
| CN1CCc2cccc3c2[C@H]1Cc1ccc(O)c(O)c1-3 [R-(-)-Apomorphine HCl Hemihydrate] | -1.27 | -0.977 | -0.9 | -0.348 |
| C[C@]12CC[C@@H]3c4ccc(O)cc4CC[C@H]3[C@@H]1CCC2=O [Estrone] | -0.629 | -0.464 | -0.496 | -0.599 |
| CN(C)CCOC(c1ccccc1)c1ccccc1 [Diphenhydramine HCl (Benadryl)] | 0.446 | 0.553 | 0.0465 | 0.157 |
| Nc1ccc(S(=O)(=O)Nc2nccs2)cc1 [Sulfathiazole] | 0.158 | 0.909 | 0.229 | 0.131 |
| Cc1cccc(C)c1NC(=O)C1CCCCN1C (stereo not drawn) [Mepivacaine HCl] | 0.142 | 0.121 | 0.196 | 0.645 |
| CCCCCCOC(=O)NC(=N)c1ccc(NCc2nc3cc(C(=O)N(CCC(=O)OCC)c4ccccn4)ccc3n2C)cc1 [BIBR-1048 (Dabigatran)] | 0.462 | 1.17 | 0.158 | 0.583 |
| O=C(O)/C=C/c1ccc(Cn2ccnc2)cc1 [Ozagrel HCl] | -0.121 | 0.907 | 1.11 | 1.17 |
| CC(=O)OC[C@H]1O[C@@H]([S-])[C@H](OC(C)=O)[C@@H](OC(C)=O)[C@@H]1OC(C)=O.CCP(CC)CC.[Au+] [Auranofin] | -8.7 | -7.52 | -7.91 | -6.89 |
| NC(=O)c1ncn([C@@H]2O[C@H](CO)[C@@H](O)[C@H]2O)c1O [Mizoribine (Bredinin)] | -2.06 | 1.22 | 0.638 | 0.206 |
| CCc1oc2ccccc2c1C(=O)c1cc(Br)c(O)c(Br)c1 [Benzbromarone] | 1.21 | 0.169 | 1.24 | 0.622 |
| Cc1cc(NC(=O)C2=C(O)c3ccccc3S(=O)(=O)N2C)no1 [Isoxicam] | -0.302 | -1.37 | -0.541 | 0.777 |
| O=C(CCCN1CCC(O)(c2ccc(Cl)cc2)CC1)c1ccc(F)cc1 [Haloperidol (Haldol)] | -1.36 | 0.79 | -1.48 | 0.304 |
| CCCN1C[C@H](CSC)C[C@@H]2c3cccc4[nH]cc(c34)C[C@H]21 [Pergolide mesylate] | -0.665 | -0.702 | -0.49 | 0.382 |
| Cc1cc(C(C#N)c2ccc(Cl)cc2)c(Cl)cc1NC(=O)c1cc(I)cc(I)c1O (stereo not drawn) [Closantel Sodium] | -0.0218 | -0.51 | 0.191 | 0.00315 |
| CN(C)CCC(c1ccc(Cl)cc1)c1ccccn1 (stereo not drawn) [Chlorpheniramine Maleate] | -0.234 | 0.261 | -0.928 | 0.0721 |
| NC(=O)N1c2ccccc2CC(=O)c2ccccc21 [Oxcarbazepine] | 1.19 | -1.63 | 0.971 | 0.288 |
| CC(=O)OCC(CCn1cnc2cnc(N)nc21)COC(C)=O [Famciclovir (Famvir)] | -0.232 | 0.032 | 0.107 | 0.473 |
| CCC[C@@H]1C[C@@H](C(=O)N[C@@H]([C@H]2O[C@H](SC)[C@H](O)[C@@H](O)[C@H]2O)[C@H](C)Cl)N(C)C1 [Clindamycin] | 0.988 | 0.685 | -0.0168 | 0.103 |
| O=C(Nc1ccccc1)OCC(CN1CCCCC1)OC(=O)Nc1ccccc1 (stereo not drawn) [Diperodon HCl] | -1.16 | -2.15 | -1.61 | -1.31 |
| O=C(Nc1c(Cl)cncc1Cl)c1ccc(OC(F)F)c(OCC2CC2)c1 [Roflumilast (Daxas)] | -0.266 | -0.358 | -0.664 | 0.0281 |
| C=C1c2c(Cl)ccc(O)c2C(=O)C2=C(O)[C@]3(O)C(=O)C(C(N)=O)=C(O)[C@@H](N(C)C)[C@@H]3[C@@H](O)[C@H]12.O=C(O)c1cc(S(=O)(=O)O)ccc1O [Meclocycline Sulfosalicylate] | -0.943 | -0.676 | -1.77 | -1.27 |
